Source: paper PMC4336329 (PLoS ONE, 2015)
Hit rate of the full screen: of about 310,000 compounds, about 2,200 (0.71%) showed an effect of 50% or more. The effect is printed as a negative number. The list shows a part of the results.

molecular target: human ether-à-go-go-related gene (hERG) potassium channel (human, UniProt Q12809); test: primary screen, population patch clamp on CHO cells stably expressing hERG
Sequence (Q12809 whole entry, looked up): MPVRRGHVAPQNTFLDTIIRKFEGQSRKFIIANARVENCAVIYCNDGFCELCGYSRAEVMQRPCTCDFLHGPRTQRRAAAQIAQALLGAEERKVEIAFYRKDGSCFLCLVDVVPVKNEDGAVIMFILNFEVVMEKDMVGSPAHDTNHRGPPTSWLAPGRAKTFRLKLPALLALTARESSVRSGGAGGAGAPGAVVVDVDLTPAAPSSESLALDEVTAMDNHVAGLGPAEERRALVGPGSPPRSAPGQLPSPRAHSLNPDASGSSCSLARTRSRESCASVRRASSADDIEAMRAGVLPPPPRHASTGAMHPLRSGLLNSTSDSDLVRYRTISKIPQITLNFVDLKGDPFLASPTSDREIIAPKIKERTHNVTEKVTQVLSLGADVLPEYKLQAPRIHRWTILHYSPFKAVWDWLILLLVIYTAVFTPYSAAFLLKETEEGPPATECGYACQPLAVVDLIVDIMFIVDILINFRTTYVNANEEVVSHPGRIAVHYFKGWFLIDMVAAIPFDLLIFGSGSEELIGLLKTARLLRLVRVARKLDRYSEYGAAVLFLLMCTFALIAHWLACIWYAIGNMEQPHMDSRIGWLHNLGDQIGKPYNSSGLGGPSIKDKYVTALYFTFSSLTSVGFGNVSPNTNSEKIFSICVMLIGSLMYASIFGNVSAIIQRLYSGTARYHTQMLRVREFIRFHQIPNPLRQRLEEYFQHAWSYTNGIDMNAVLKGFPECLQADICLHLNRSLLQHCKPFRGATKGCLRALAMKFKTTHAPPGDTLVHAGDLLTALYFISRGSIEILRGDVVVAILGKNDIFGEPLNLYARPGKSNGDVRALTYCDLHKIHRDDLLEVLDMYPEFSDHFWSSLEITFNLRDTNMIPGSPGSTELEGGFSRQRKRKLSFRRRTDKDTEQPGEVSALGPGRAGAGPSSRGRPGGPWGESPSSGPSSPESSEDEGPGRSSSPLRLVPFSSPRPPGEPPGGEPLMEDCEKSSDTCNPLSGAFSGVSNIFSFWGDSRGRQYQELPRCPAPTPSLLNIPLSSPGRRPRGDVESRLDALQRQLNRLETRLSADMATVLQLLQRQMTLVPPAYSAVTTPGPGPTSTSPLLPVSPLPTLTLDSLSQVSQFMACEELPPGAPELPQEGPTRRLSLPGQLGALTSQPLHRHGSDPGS

SMILES	hERG current change (%, negative = inhibition) at 1uM [%]
CCOC(=O)N1CCN(c2c(NCCc3ccc(OC)c(OC)c3)c(=O)c2=O)CC1	6.41
O=C(CSCc1ccc(Br)cc1)NCc1ccccn1	8.97
COc1ccc(N)cc1C#N	0.109
Cc1cc(Br)ccc1NC(=O)CNC(=O)CNc1cccc([N+](=O)[O-])c1	2.05
Cc1cc(Br)cc(C=Nc2ccc(N3CCOCC3)cc2)c1O	11.1
N#Cc1ccc(CN2CCN(C(=O)c3ccc(S(=O)(=O)N4CCCCCC4)cc3)CC2)cc1	-5.24
O=C(c1ccccc1OCc1ccccc1Br)N1CCN(c2ncccn2)CC1	-13.6
Cc1ccc(SCCOCCN2CCc3ccccc3C2)cc1	-6.57
O=C(CCC1CCCCC1)Nc1ccc(C(=O)c2ccncc2)cc1	0.002
CCOc1ccc(-n2cc(C(=O)NCCOC)c3cc(OC)c(OC)cc3c2=O)cc1	17.9
COc1ccccc1N1CCN(C(=O)CN(C)S(=O)(=O)c2ccc3c(c2)c(=O)n(C)c(=O)n3C)CC1	5.58
NC(=O)CSc1nc2scc(-c3ccco3)c2c(=O)n1-c1ccccc1	1.26
O=C(CCc1nc2ccccc2s1)NCc1ccccc1F	14.5
Cc1nn(C)c(C)c1C1C(C#N)=C(N)OC2=C1C(=O)CC(C)(C)C2 (stereo not drawn)	-2.5
COC(=O)[C@@H](NC(=O)NC1CCCc2ccccc21)C(C)C (stereo partly drawn)	16.9
Cc1onc(-c2ccccc2Cl)c1C(=O)Nc1ccccc1C(N)=O	4.31
COc1ccccc1Cn1c(SCC#N)nc2cc(C(=O)N3CCC4(CC3)OCCO4)ccc2c1=O	16.1
Fc1ccc(Nc2nc(-c3cccnc3)cs2)cc1	13.7
Nn1c(SCC(=O)NCc2ccccc2)nncc1=O	11.3

SMILES	hERG current change (%, negative = inhibition) at 1uM [%]
Cc1ccc(S(=O)(=O)N(C)CC(=O)NNC(=O)Cc2cccc(F)c2)cc1	4.71
Cc1cc(C)cc(-n2ncc3c2CCCC3NC(=O)c2cc(C)[nH]n2)c1 (stereo not drawn)	6.03
CCOc1ccc(NC(=S)NCc2ccc3[nH]c(C)cc3c2)cc1	18.4
CCOC(=O)C1=C(N)n2c(s/c(=C\c3cccs3)c2=O)=C(C(=O)OCC)C1c1cccs1 (stereo not drawn)	16.6
O=C1c2ccccc2C(=O)N1c1n[nH]c(CCc2ccccc2)n1	5.86
O=C(CCSCc1ccc(Cl)cc1)NCCC1=CCCCC1	15.2
CCn1c(SCc2ccc(F)cc2)nc2ccccc2c1=O	18.3
CCn1cc(C(=O)N2CCN(C(=O)c3ccco3)CC2)c2cc(OC)c(OC)cc2c1=O	12.9
COc1cccc(C(=O)N[C@@H](CCSC)c2nc3ccccc3[nH]2)c1	3.44
Cn1cc(CN2CCC(Oc3ccc(C(=O)N4CCCCC4)cc3)CC2)cn1	9.69
CC1CCCN(S(=O)(=O)c2ccc(NC(=O)C3CCN(C(=O)C(C)(C)C)CC3)cc2)C1 (stereo not drawn)	5.57
Cc1ccc(Cn2nnc3c(=O)n(CC(=O)N4CCCCC4)cnc32)cc1	-2.84
Cc1ccccc1NC(=S)Nn1cnnc1	14.6
CCCCC(=O)Nc1nnc(CCOC)s1	14.6
Cn1c(=O)c2c(nc(Oc3ccc4c(c3)OCO4)n2Cc2ccc(Cl)cc2)n(C)c1=O	8.2
COc1cccc(C(CC(=O)Nc2cccc3ccccc23)NC(=O)c2ccccc2)c1 (stereo not drawn)	4.76
O=C(NCC(O)CO)c1csc(Nc2cccc3ccccc23)n1 (stereo not drawn)	11.5
Cc1nn(CC(=O)NCc2ccccc2)c(C)c1[N+](=O)[O-]	3.9
CN1CCN(c2c(F)cc3c(=O)c(C(=O)O)cn4c3c2SCC4)CC1.Cl	12.2

SMILES	hERG current change (%, negative = inhibition) at 1uM [%]
CCOc1ccc(-n2c(SCc3nc(-c4ccc(C)cc4)no3)nnc2-c2ccncc2)cc1	-42.3
COc1ccccc1N1CCN(C(=O)c2cccs2)CC1	14.2
Cn1nc(C(=O)Nc2sccc2C(N)=O)ccc1=O	15.1
COc1ccc(Br)cc1CNC(C)c1ccccc1 (stereo not drawn)	7.15
CCOC(=O)c1c(C)[nH]c(C(=O)OCc2ccc(F)cc2)c1C	6.2
Cc1cccc(NC(=O)CCN2CC(C)CC(C)C2)c1.Cl (stereo not drawn)	-29.4
Cc1cccc(C)c1NC(=O)C(NC=O)c1ccccc1 (stereo not drawn)	-11.1
O=C(c1ccccc1)N1CCCC(c2ccc(Cl)cc2)=N1	14.4
O=C(Nc1ccc(C(F)(F)F)cc1)c1cccnc1N1CCOCC1	-2.56
Cc1nc(C(F)(F)F)ccc1C(=O)Nc1ccc(C(F)(F)F)cn1	13.5
Cc1nnc(C)c2c(C)n(-c3ccc4ncccc4c3)c(C)c12	5.13
CC(C)(C)NC(=O)C(c1ccc(F)cc1)N(CCc1ccccc1)C(=O)c1ccn[nH]1 (stereo not drawn)	8.74
CCOC(=O)N1CCC(N2Cc3cccc(C(=O)Nc4ccc(CC)cc4)c3C2=O)CC1	4.97
CCCCNC(=O)Oc1c(Br)cc2sc(=O)oc2c1Br	16
N#CC1=C(N)NC(SCc2ccc(F)cc2)=C(C#N)C12CCCCC2	13.2
Cc1nn(C)c(C)c1NC(=O)c1ccc(Br)o1	8.77
COc1cccc(-n2c(SCC(=O)NC3CCS(=O)(=O)C3)nc3ccccc3c2=O)c1 (stereo not drawn)	15.1
COc1ccc(C2Nc3cccc4cccc(c34)N2)cc1	8.37
O=C(Cn1c(=O)n(-c2ccccc2)c(=O)c2sccc21)N1CCCC1	2.32
